Data from PubChem BioAssay AID588342 (National Center for Advancing Translational Sciences (NCATS), 2011).
Out of some 360,000 compounds screened, about 25,000 (6.9%) were called active. Inconclusive means that the source gave no clear call. Such entries were picked first, then a sample of the others. Calls come from the whole dose curve; as a rule, active = well fitted inhibition curve with a large enough effect; inconclusive = small, poorly fitted or top-dose-only effect; inactive = flat fitted curve, though single readings scatter. Where the call is inconclusive, the potency comes from a doubtful curve fit.

What follows are compounds tested against Luciferin 4-monooxygenase (Photinus pyralis) (UniProt P08659) (assay: qHTS profiling assay for firefly luciferase inhibitor/activator using purifed enzyme and Km concentrations of substrates (counterscreen for miR-21 project)). Settings: purified FLuc, luminescence inhibition; series mostly up to 57.5 µM.
Sequence of UniProt P08659 (P08659 whole entry, looked up): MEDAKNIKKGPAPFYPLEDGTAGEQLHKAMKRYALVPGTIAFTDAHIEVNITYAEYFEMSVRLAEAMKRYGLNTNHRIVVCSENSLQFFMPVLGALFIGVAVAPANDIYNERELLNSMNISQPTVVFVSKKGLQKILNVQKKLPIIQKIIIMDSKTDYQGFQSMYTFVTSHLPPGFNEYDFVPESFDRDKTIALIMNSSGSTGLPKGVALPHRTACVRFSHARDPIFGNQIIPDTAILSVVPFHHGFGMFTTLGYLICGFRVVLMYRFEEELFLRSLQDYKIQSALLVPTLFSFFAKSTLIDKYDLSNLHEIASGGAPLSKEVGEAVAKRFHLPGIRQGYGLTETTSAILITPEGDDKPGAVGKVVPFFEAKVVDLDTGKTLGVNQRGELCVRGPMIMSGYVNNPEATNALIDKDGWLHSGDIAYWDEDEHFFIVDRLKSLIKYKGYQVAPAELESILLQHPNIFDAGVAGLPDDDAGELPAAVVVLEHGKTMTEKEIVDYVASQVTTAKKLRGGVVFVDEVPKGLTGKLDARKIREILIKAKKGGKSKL
Summary of the method: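 Purified P. pyralis luciferase, 10 nM final, with Km-level 10 uM D-luciferin and 10 uM ATP in 50 mM Tris acetate pH 7.5, 10 mM Mg acetate, 0.01% Tween-20, 0.05% BSA; 6-point qHTS titration about 60 µM downward; luminescence read.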
Note: nearly all actives have a fitted effect of over 55% in size.
Potency is the fitted concentration of half-maximal effect; tags give direction and shape of the fitted curve.

| SMILES | Potency |
| --- | --- |
| Cc1nnc2c3ccccc3c(-c3ccc(O)cc3)nn12 | inactive |
| Cc1c(C(=O)N2CCCCCC2)c(S(=O)(=O)NCc2ccccc2)c(C)n1C | inactive |
| O=C(CNC(=O)c1ccco1)NCC(=O)OCc1ccc(C(=O)Oc2ccc(Cl)cc2)cc1 | inconclusive: 8.49 µM [inhibitor, partial curve, poor fit] |
| CSc1ccccc1-c1nnc(NC(=O)c2ccc3c(c2)OCCO3)o1 | inconclusive: 12 µM [inhibitor, partial curve] |
| Cc1ccc(Oc2coc3cc(OC(=O)c4cccs4)ccc3c2=O)cc1 | inconclusive: 30.1 µM [inhibitor, partial curve, poor fit] |
| Cc1cc(NC(=O)c2cc(-c3ccc(C)s3)nc3ccccc23)no1 | inconclusive: 19 µM [inhibitor, partial curve, poor fit] |
| COc1ccccc1/C=N/Nc1cc(C)nc(N2CCOCC2)n1 | active: 13.5 µM |
| Cc1ccc(S(=O)(=O)N(Cc2cc3ccccc3[nH]c2=O)c2cccc(C)c2)cc1 | inactive |
| O=C(NCCc1ccccc1)Nc1ccc(Cl)cc1 | active: 6.75 µM |
| Cc1cc2ncn(C(=O)N3CCC(C)CC3)c2cc1C | inconclusive: 13.5 µM [inhibitor, partial curve] |
| Cc1cc(NS(=O)(=O)c2ccc(Nc3nc(-c4ccc(C)c(C)c4)cs3)cc2)no1 | inconclusive: 37.9 µM [inhibitor, partial curve, poor fit] |
| Clc1cc(Br)ccc1OCCCn1ccnc1 | inconclusive: 4.78 µM [inhibitor, single point] |
| CN(C)S(=O)(=O)c1cc(NC(=O)CNCc2ccccc2)ccc1Cl | inconclusive: 37.9 µM [inhibitor, single point] |
| COc1cccc(CSc2nc3n(n2)C(c2ccc(C(=O)O)cc2)C(C(=O)Nc2ccccc2)=C(C)N3)c1 (configuration not stated) | inconclusive: 37.9 µM [inhibitor, partial curve, poor fit] |
| Cc1cc(Br)ccc1NC(=O)CSc1c2c(nc3ccccc13)CCC2 | inactive |
| Cc1ccc(C(=O)NCCc2nnc(SCC(=O)Nc3cccc(C(=O)O)c3)n2C)cc1 | active: 10.7 µM |
| Cc1nnc(NC(=O)c2ccc3nccnc3c2)s1 | active: 15.1 µM |
| CCCc1cc(C(=O)Nc2ccn(Cc3ccc(C)cc3)n2)no1 | inconclusive: 30.1 µM [inhibitor, single point] |
| CCOc1ccc(CNC(=O)CCc2c(C)nn(-c3ccc(N4CCCCC4)nn3)c2C)cc1 | inconclusive: 15.1 µM [inhibitor, partial curve, poor fit] |
| Cc1nc(N)sc1-c1csc(NCc2ccccc2)n1 | inconclusive: 37.9 µM [inhibitor, single point] |
| CC[C@@H](C)[C@H](NC(=O)Cc1c(C)c2cc3c(C)c(C)oc3c(C)c2oc1=O)C(=O)O | inconclusive: 37.9 µM [inhibitor, partial curve, poor fit] |
| Cc1ccc(-c2cc(C(=O)N3CCN(C(=O)c4ccco4)CC3)[nH]n2)c(C)c1 | inconclusive: 30.1 µM [inhibitor, single point] |
| Cc1ccc(NC(=O)c2ccc(CN3CC(=O)N4CCCCC4C3=O)cc2)c(Cl)c1 (configuration not stated) | inconclusive: 23.9 µM [inhibitor, partial curve] |
| Cn1c(=O)c2c(nc(N3CCN(c4ccc([N+](=O)[O-])cc4)CC3)n2C)n(C)c1=O | inactive |

| SMILES | Potency |
| --- | --- |
| COc1ccc(S(=O)(=O)NCc2nc(-c3ccccc3)no2)cc1 | inactive |
| O=C(NCc1ccc2c(c1)OCO2)c1cnc2n(c1=O)CCS2 | inactive |
| Cc1ccc(C(=O)O/N=C(\N)c2ccc(Br)cc2)cc1 | active: 2.39 µM |
| CCOC(=O)c1sc2ncn(CC(=O)Nc3ccc(OC)c(Cl)c3)c(=O)c2c1C | inactive |
| O=C(Nc1ccc2[nH]c3c(c2c1)CCCC3)c1ccco1 | inconclusive: 37.9 µM [inhibitor, partial curve, poor fit] |
| Cc1cc2n(n1)C(c1ccco1)Nc1ccccc1-2 (configuration not stated) | inactive |
| C=CCNC(=O)c1ccc(OC2CCN(S(=O)(=O)N(C)C)CC2)cc1 | active: 16.9 µM |
| COc1ccc(C(CNC(=O)c2oc3c(Cl)cccc3c2C)N2CCCC2)cc1 (configuration not stated) | inactive |
| COc1cccc(C(=O)NNC(=O)C(=O)Nc2ccc(C)cc2)c1 | inactive |
| COc1cccc(NC(=S)Nc2ccc(O)cc2)c1 | inconclusive: 30.1 µM [inhibitor, partial curve, poor fit] |
| CN(C(=O)COC(=O)c1cccc(S(=O)(=O)N2CCOCC2)c1)C1CCS(=O)(=O)C1 (configuration not stated) | inactive |
| C=CCn1c(SCC(=O)c2cc(C)n(CC3CCCO3)c2C)nnc1-c1ccccc1 (configuration not stated) | inconclusive: 26.9 µM [inhibitor, partial curve] |
| O=C1c2ccccc2CCC12N=NCC2c1ccccc1 (configuration not stated) | active: 16.9 µM |
| O=C(Cc1ccc(Br)cc1)N1CCCCCC1 | inconclusive: 16.9 µM [inhibitor, partial curve] |
| COc1ccc(OCc2nnc(SCC(=O)c3c(N)n(C)c(=O)n(C)c3=O)n2-c2ccccc2F)cc1 | inactive |
| Cc1cc(C)c2nc3sc(C(=O)N4CCOCC4)c(N)c3cc2c1 | active: 0.213 µM |
| O=C(Nc1cccc([N+](=O)[O-])c1)c1[nH]ncc1Cl | active: 16.9 µM |
| Cc1cccc(N2CCN(C(=O)Cc3ccccc3[N+](=O)[O-])CC2)c1C | inconclusive: 33.8 µM [inhibitor, partial curve, poor fit] |
| Cc1ccc(N=C/C(C(=O)C(F)(F)F)=C(\O)c2cccs2)cc1 | active: 13.5 µM |
| O=C(c1cc2c(Cl)nc3ccccc3c2s1)N1CCCCC1 | inconclusive: 15.1 µM [inhibitor, partial curve, poor fit] |
| Cc1ccc(CNS(=O)(=O)c2cnc(N)nc2)cc1 | inactive |
| Cc1cccc(N=N/C(=C\O)C(=O)c2ccc(Br)cc2)c1 | inconclusive: 37.9 µM [inhibitor, partial curve, poor fit] |
| O=C(CCC(=O)N(CC(=O)NC1CCCC1)Cc1ccccc1)Nc1nccs1 | inactive |
| CC1=NN(c2ccccc2)C(=O)C1N=Nc1ccc(S(N)(=O)=O)cc1 (configuration not stated) | inactive |

| SMILES | Potency |
| --- | --- |
| O=C(CCc1ccc(S(=O)(=O)NC2CCCCC2)cc1)NCc1cccnc1 | inconclusive: 37.9 µM [inhibitor, partial curve, poor fit] |
| CC(C)Sc1ccc(C(=O)Nc2ccc(F)cc2F)cn1 | inconclusive: 9.53 µM [inhibitor, partial curve] |
| N/C(=N\OC(=O)CN1C(=O)c2ccccc2C1=O)c1ccc(Cl)cc1 | inconclusive: 9.53 µM [inhibitor, partial curve, poor fit] |
| O=C(N/N=C/c1c[nH]c2ccccc12)c1ccn(Cc2ccc(Cl)cc2)n1 | inconclusive: 19 µM [inhibitor, partial curve, poor fit] |
| O=C(/C=C/c1ccc(Cl)c(Cl)c1)N1CCOCC1 | inconclusive: 30.1 µM [inhibitor, partial curve, poor fit] |
| O=C(Cc1ccc(Cl)cc1)Nc1ccc(SC(F)F)cc1 | inconclusive: 26.9 µM [inhibitor, single point] |
| CNC(=S)N1CCN(c2nc3ccccc3s2)CC1 | active: 16.9 µM |
| Cc1ccnc(NC(=O)C2CCN(S(=O)(=O)c3ccc(C)c(C)c3)CC2)c1 | inconclusive: 21.3 µM [inhibitor, single point] |
| Cc1ncsc1CCC(=O)N1CCCC(Nc2ccc(C(C)C)cc2)C1 (configuration not stated) | inactive |
| O=C(CCCn1c(=S)[nH]c2ccsc2c1=O)Nc1ccc2c(c1)OCCO2 | inconclusive: 26.9 µM [inhibitor, partial curve] |
| C=C(C)CNC(=S)N/N=C/c1ccc(N2CCOCC2)cc1 | inconclusive: 16.9 µM [inhibitor, partial curve, poor fit] |
| Cc1ccc(-c2cnc(-c3ccncc3)o2)cc1 | active: 6.75 µM |
| O=C(NN=C1CCCCCCCCCCC1)c1ccccc1F | inactive |
| O=C(Cc1coc2cc3c(cc12)CCC3)NCC1(N2CCCCC2)CCCCC1 | inactive |
| CCOc1ccc(CCNC(=O)c2cc(C)nn2-c2ccccc2)cc1 | inactive |
| COc1cc2c(C#N)c(N3CCCC3)nc(N)c2c(N)n1 | active: 16.9 µM |
| CC(C)=NNc1nc(-c2ccc([N+](=O)[O-])cc2)cs1 | inconclusive: 7.57 µM [inhibitor, partial curve, poor fit] |
| Cc1oc2cc3oc(=O)c(CCC(=O)NCCc4ccccc4F)c(C)c3cc2c1C | inactive |
| Cc1nn(CCc2nn[nH]n2)c2nc(-c3ccccc3)cc(C(F)(F)F)c12 | inconclusive: 16.9 µM [inhibitor, partial curve] |
| Cc1nc2cc(C(=O)OCC(=O)Nc3cccc(Cl)c3)ccc2n1-c1ccccc1 | inconclusive: 26.9 µM [inhibitor, partial curve, poor fit] |
| O=C(O)C1CCN(C(=O)CSc2nc3ccccc3s2)CC1 | inconclusive: 26.9 µM [inhibitor, partial curve, poor fit] |
| FC(F)(F)c1ccc(Cl)c(N/N=C/c2ccc(N3CCOCC3)s2)c1 | inconclusive: 23.9 µM [inhibitor, single point] |
| COc1ccc(Nc2nc(-c3ccc(OC)cc3)cs2)cc1 | inconclusive: 1.2 µM [inhibitor, partial curve, poor fit] |
| CN(C)c1ccc(NC(=O)Cn2c(SCc3ccc(F)cc3)nc3ccncc32)cc1 | inconclusive: 7.57 µM [inhibitor, partial curve, poor fit] |
